Measured values as given in publication PMC4336329 (PLoS ONE, 2015).
The campaign covered roughly 310,000 compounds. About 2,200 (0.71%) showed an effect of 50% or more. The effect is printed as a negative number. The list shows a part of the results.

Each molecule was assayed against human ether-à-go-go-related gene (hERG) potassium channel (human, UniProt Q12809) (assay: primary screen, population patch clamp on CHO cells stably expressing hERG).
Chain of human ether-à-go-go-related gene (hERG) potassium channel (Q12809 whole entry, looked up): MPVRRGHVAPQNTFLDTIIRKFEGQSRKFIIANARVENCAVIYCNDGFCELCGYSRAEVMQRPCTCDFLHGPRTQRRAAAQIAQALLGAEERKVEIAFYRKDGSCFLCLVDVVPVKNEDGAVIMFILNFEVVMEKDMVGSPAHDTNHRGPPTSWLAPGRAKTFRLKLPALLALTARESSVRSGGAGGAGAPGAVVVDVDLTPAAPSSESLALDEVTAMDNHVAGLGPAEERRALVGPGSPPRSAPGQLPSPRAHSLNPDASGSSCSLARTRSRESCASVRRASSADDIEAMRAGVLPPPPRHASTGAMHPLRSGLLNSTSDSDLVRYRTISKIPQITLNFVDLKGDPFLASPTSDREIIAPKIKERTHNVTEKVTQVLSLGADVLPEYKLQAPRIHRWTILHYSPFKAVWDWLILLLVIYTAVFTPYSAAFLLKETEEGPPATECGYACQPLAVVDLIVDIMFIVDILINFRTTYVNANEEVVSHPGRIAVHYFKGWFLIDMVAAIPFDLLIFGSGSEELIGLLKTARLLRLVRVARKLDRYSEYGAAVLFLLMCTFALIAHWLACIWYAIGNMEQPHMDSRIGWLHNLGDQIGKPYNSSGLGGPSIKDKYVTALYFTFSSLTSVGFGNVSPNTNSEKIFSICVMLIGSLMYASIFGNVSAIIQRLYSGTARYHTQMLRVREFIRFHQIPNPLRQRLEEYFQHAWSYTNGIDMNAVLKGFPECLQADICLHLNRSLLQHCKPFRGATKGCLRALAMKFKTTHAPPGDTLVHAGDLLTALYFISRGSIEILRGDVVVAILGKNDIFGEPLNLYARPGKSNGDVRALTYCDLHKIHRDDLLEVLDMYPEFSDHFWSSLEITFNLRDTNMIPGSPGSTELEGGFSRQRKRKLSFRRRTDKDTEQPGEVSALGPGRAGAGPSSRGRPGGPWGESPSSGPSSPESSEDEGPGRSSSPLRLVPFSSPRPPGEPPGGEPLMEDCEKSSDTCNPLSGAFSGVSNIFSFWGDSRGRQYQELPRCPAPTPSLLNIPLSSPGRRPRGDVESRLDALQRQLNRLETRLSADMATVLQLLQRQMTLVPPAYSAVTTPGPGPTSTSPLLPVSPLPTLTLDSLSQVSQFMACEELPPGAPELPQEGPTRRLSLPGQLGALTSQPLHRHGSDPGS

SMILES | hERG current change (%, negative = inhibition) at 1uM
CC/C(=C(/CC)c1ccc(O)cc1)c1ccc(O)cc1 | 16%
CCCN(CCC)S(=O)(=O)c1ccc(C(=O)NCc2ccco2)cc1 | 14.1%
CCOC(=O)C1=C(C)N=C2SC(C)C(=O)N2C1/C=C/c1ccccc1OC (stereo not shown) | 11.5%
Cn1c(C(=O)NCCN2CCN(Cc3ccccc3)CC2)cc2c(=O)n(C)c3ccccc3c21 | 5.29%
Cc1cc(CNC(=O)Cc2ccccc2)c2ccccc2n1 | -12.1%
CC1(C)SC2c3ccccc3C(=O)N2[C@@H]1C(=O)O (stereo partly shown) | 12.8%
Cc1ccc(CNC(=O)c2ccccc2CCc2ccccc2)cc1 | -6.69%
CC[N+](CC)(CC)C/C(N)=N/O.[Cl-] | 11.1%
Cc1ccc(N2C(=O)C(O)(C(F)(F)F)C3=C2CC(C)(C)CC3=O)cc1 (stereo not shown) | 13%
Cc1cccc(N2C(=O)NC(=O)C3(Cc4cc(C)ccc4N(C)C3)C2=O)c1 (stereo not shown) | 13.2%
COc1cc(C(=O)Nc2ccccc2C2COC(=O)C2=N)cc(OC)c1OC (stereo not shown) | 4.85%
CN(C)c1nc(Oc2ccc(/C=N/O)cc2)nc(N(C)C)n1 | 11.2%
CC12CS(=O)(=O)CC1SC(=S)N2Cc1ccccc1 (stereo not shown) | 5.71%
O=C(Nc1ccc2[nH]ccc2c1)c1ccccc1 | 19.6%
CC(C)c1ccccc1NC(=O)CNCCOc1ccccc1F.O=C(O)C(=O)O | 14%
O=C(NCc1ccccc1)c1ccc(F)c(F)c1 | 12.9%
Cc1cccc(NCc2cccc3ccccc23)n1 | 16.2%
CCCCCCNC(=O)C(C#N)c1nc2ccccc2nc1N1CCOCC1 (stereo not shown) | 9.49%
CSc1nnc(C)c(=O)n1COC(=O)c1cc(Cl)ccc1[N+](=O)[O-] | 12.6%
CCOCc1nnc(NC(=O)CSc2ccccc2)s1 | 4.8%
COC(=O)c1c(C)oc(C)c1S(=O)(=O)NCc1ccc(Cl)cc1 | 7.45%
COc1ccc(CN(C)C(=O)c2ccc(OCC(=O)Nc3cccc(C(F)(F)F)c3)c(OC)c2)c(OC)c1 | 6.3%

SMILES | hERG current change (%, negative = inhibition) at 1uM
CCC(C)(C)NC(=O)C(c1cccc(OC)c1OC)N(Cc1ccc(OC)cc1)C(=O)CCC(=O)Nc1cc(C)on1 (stereo not shown) | 3.7%
COC(=O)/C(=C/c1cccc([N+](=O)[O-])c1)NC(=O)c1ccc(OC)cc1 | 7.25%
O=c1oc(-c2ccccc2NS(=O)(=O)c2ccccc2)nc2ccccc12 | 10.3%
CCOC(=O)c1cc(NC(=O)c2cc(C)on2)cc(C(=O)OCC)c1 | -3.34%
COc1ccc(CNC(=O)CC(C)CC2=NS(=O)(=O)c3ccccc3N2)cc1 (stereo not shown) | 14%
COC(=O)c1scc(C)c1NC(=O)CSc1ccc(Cl)cc1 | 2.99%
CC(CCc1ccco1)NC(=O)CSc1cc(=O)n(C)c2ccccc12 (stereo not shown) | -1.14%
Cc1ccc(CC2CC(=O)N(CCc3ccc4c(c3)OCO4)C2=O)cc1 (stereo not shown) | 10.9%
Cc1ccc(S(=O)(=O)N2CCN(S(=O)(=O)c3c(C)n[nH]c3C)CC2)cc1C | 17.2%
COc1ccc(OC)c(/C=C2\Oc3cc(OCC(=O)N4CC(O)C[C@H]4C(=O)O)ccc3C2=O)c1 (stereo partly shown) | 5.77%
Cc1ccc(-c2nnc(SCc3ccccc3F)o2)cc1 | 5.35%
Cc1nc(NC(=O)c2ccccc2)sc1-c1csc(Nc2ccc(Cl)cc2)n1 | 18.7%
O=C(NCCCO)/C(=C/c1ccc(-c2cccc([N+](=O)[O-])c2)o1)NC(=O)c1ccccc1 | -4.53%
O=[N+]([O-])c1cc(Cl)cc(/C=N/Nc2nc3ccccc3s2)c1O | 6.61%
Cc1[nH]c(=O)c(C(=O)c2ccccc2O)cc1C(=O)O | 11.5%
CCC1CN(C(=O)N2CCC(C(=O)NCc3ccc(F)cc3)CC2)c2ccccc2O1 (stereo not shown) | -1.15%
O=c1[nH]c(O)c(C=Nc2ccc(F)c(Cl)c2)c(=O)[nH]1 | 18%
CCN1CCN(C(=O)c2cccc(OC3CCN(S(C)(=O)=O)CC3)c2)[C@@H](C)C1=O | 14.5%
CSc1ccc(NC(=O)N2CCC(C(=O)c3ccc(F)cc3)CC2)cc1 | 5%
CCNC(=O)C(=O)NCc1ccncc1 | 10.7%
Cc1cc(=O)[nH]c(N/N=C/c2c(C)nn(-c3ccccc3)c2Cl)n1 | -5.06%
COc1ccc(-c2c(-c3ccc(OCC(=O)NN)cc3O)n[nH]c2C)cc1OC | 15.8%

SMILES | hERG current change (%, negative = inhibition) at 1uM
CCOc1c(Br)cc(CNc2ccc(N3CCN(C(C)=O)CC3)cc2)cc1OC | 3.28%
COc1cc(C)ccc1OCC(=O)NC1CCCCCC1 | 19.7%
Cc1ccc(NC(=O)CN(C)C(=O)CNC(=O)c2sc3ccccc3c2Cl)cc1 | 9.23%
CCN(CC(=O)Nc1ccc(NC(C)=O)cc1)C(=O)Cc1ccccc1F | 14.1%
COc1cc(OC)cc(C(=O)Nc2cc(C)nn2-c2ccccc2)c1 | 8.64%
CCCNC(=O)CCn1nc(-c2ccccc2)c2ccccc2c1=O | 12.2%
N/C(=N\OC(=O)c1cccc2ccccc12)c1cccnc1 | 12.4%
COc1ccc(CCNS(=O)(=O)c2c(C)[nH]c(C)c2C(=O)N2CCCCC2)cc1OC | 13.5%
Cc1ccc(NC(=O)CSCC(=O)N2CCN(c3cccc(C(F)(F)F)c3)CC2)cc1 | 1.61%
N#Cc1cccc(NC(=O)CCC2CCCC2)c1 | 3.56%
CN1C(=O)N(C)C(c2cccc([N+](=O)[O-])c2)C2=C1CCCC2=O (stereo not shown) | 13.3%
CC(C)CCN1C(=O)c2ccccc2C1C(=O)NCc1cccnc1 (stereo not shown) | -11%
O=C(NCCCn1ccnc1)c1cccc(S(=O)(=O)Nc2ccc(Br)cc2)c1 | 9.88%
CCCNC(=O)C(=O)c1cccn1-c1ccsc1C(=O)OC | 8.16%
CCCCS(=O)CC(CS(=O)CCCC)OC(=O)c1ccc(C)cc1 (stereo not shown) | -11.6%
Cc1ccc(NC(=O)CN2CCN(c3ccccn3)CC2)cc1S(=O)(=O)N(C)C | 3.3%
CCOc1ccc(NS(=O)(=O)c2csc(C(N)=O)c2)cc1 | 16.3%
Cc1ccccc1NC(=O)CN1C(=O)c2cccnc2Oc2ccc(Cl)cc21 | 10.1%
CCc1sc(C(=O)N2CCc3cc(OC)c(OC)cc3C2CC(=O)O)cc1C (stereo not shown) | 6.74%
O=C(/C(=C(\[O-])c1ccccc1)[n+]1ccc2ccccc2c1)c1ccc([N+](=O)[O-])cc1 | 9.67%
CCOC(=O)c1ccc(NS(=O)(=O)c2cc(-c3nnnn3C(C)C)ccc2OC)cc1 | -0.687%
CCOc1cc(NC(=S)N2CCC(C(N)=O)CC2)c(C(=O)OC)cc1OCC | 10.7%

SMILES | hERG current change (%, negative = inhibition) at 1uM
Cc1cc(C(=O)NCc2ccc3c(c2)OCO3)ccc1[N+](=O)[O-] | 12.9%
Cl.O=C1C2CCCN2C(=O)N1CCCN1CCN(c2cccc(Br)c2)CC1 (stereo not shown) | 9.06%
O=C(N/N=C\c1ccccc1)c1ccccc1-n1cccc1 | 4.28%
COc1ccc(C(=O)N2CCOC2CNC(=O)C(=O)NCc2ccc(Cl)cc2)cc1 (stereo not shown) | 3.22%
CCOc1ccc(/C=C/C(=O)Nc2ccccc2C(F)(F)F)cc1 | 13.9%
COc1ccc(NC2CCCN(C(=O)CCC(=O)c3ccc(F)cc3)C2)cc1 (stereo not shown) | -9.95%
C=CCn1c(O)c(C(CC)=Nc2ccc(NC(C)=O)cc2)c(=O)[nH]c1=O | 14%
CCCCc1ccc(NC(=O)CN2C(=O)C3CCCCC3C2=O)cc1 (stereo not shown) | 8.09%
COc1cc(SC)ccc1C(=O)OCC(=O)NC1CC1 | 9.68%
CC(=O)OCC(=O)[C@@]1(O)CC[C@H]2[C@@H]3CCC4=CC(=O)C=C[C@]4(C)[C@H]3[C@@H](O)C[C@@]21C | 12.4%
Cc1nc(C)c(C(=O)N/N=C/c2cn(C)c3ccccc23)s1 | 4.89%
O=C(COC(=O)c1cc(S(=O)(=O)N2CCCC2)ccc1O)Nc1ccc(S(=O)(=O)N2CCOCC2)cc1 | 6.22%
O=C(O)C1C2C=CC(C2)C1C(=O)Nc1ccc(C(=O)N2CCCCC2)c(Cl)c1 (stereo not shown) | 9.87%
COC(=O)C1=C(C(=O)OC)[C@@H]2N(C)c3ccc(OC)cc3[C@@]23C[C@@H](C(=O)OC)N(C(=O)NC2CCCCC2)C3=N1 | 12.3%
O=C1Cc2cc(S(=O)(=O)NCc3ccccc3Cl)cc3c2N1CCC3 | 16.2%
CC(C)CN(C(=O)CN1CC=C(c2ccccc2)CC1)c1c(N)n(CC(C)C)c(=O)[nH]c1=O | 11.5%
COc1ccc(OC)c(NC(=S)NCCSc2ccc(C)cc2)c1 | 1.61%
CCC(Nc1ccc(OC)cc1)C(=O)N/N=C/c1ccc([N+](=O)[O-])cc1 (stereo not shown) | -6.38%
COc1ccc(-c2nc3c(c(SCC(=O)Nc4cccc(O)c4)n2)Cc2c(CO)cnc(C)c2O3)cc1 | 12.5%
